# In the supplement of paper PMC12217912:
# The other results are listed elsewhere or left out. Sequences were assembled here from the parent chain. Inactive controls read about 0.05.
# B1: TEV protease; numbered along this chain (parent)
# chain: MGESLFKGPRDYNPISSSICHLTNESDGHTTSLYGIGFGPFIITNKHLFRRNNGTLVVQSLHGVFKVKDTTTLQQHLVDGRDMIIIRMPKDFPPFPQKLKFREPQREERICLVTTNFQTKSMSSMVSDTSCTFPSGDGIFWKHWIQTKDGQCGSPLVSTRDGFIVGIHSASNFTNTNNYFTSVPKNFMELLTNQEAQQWVSGWRLNADSVLWGGHKVFMVKPEEPFQPVKEATQL
# Variants of: B1
# Assay: raw area under fraction-flipped curve 0-4 h after induction (AUC4h, not background-subtracted), DNA-recorder readout of cleavage of the substrate (dimensionless); higher = more cleavage of the substrate by the protease variant
# Details: temperature: 34 °C; time window: 0-4 h after rhamnose induction
# Experimental: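 In vivo DNA recorder in E. coli TOP10(DE3) ΔrhaA at 34 °C. Each TEVp single-site mutant (parent TEVp 0) is paired with a single-site variant of the 7-mer TEVs (canonical ENLYFQ|S). The substrate sits between flexible linkers in a Bxb1-sfGFP-TEVs-SsrA fusion, so cleavage stabilises Bxb1 and speeds flipping of a recombination array, read by NGS. The value is the raw area under the fraction-flipped curve over 0-4 h after rhamnose induction (AUC4h), with ≥20 reads per time point. It is not background-subtracted; inactive controls average about 0.047.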
# 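Also: Bxb1 expression induced with 0.2% (w/v) L-rhamnose at OD600 near 0.5, cultures sampled hourly, flipped fraction per protease–substrate barcode pair counted by paired-end Illumina sequencing.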
Variant,area with substrate ENLCFQS,area with substrate ENLDFQS,area with substrate ENLHFQS,area with substrate ENLKFQS,area with substrate ENLSFQS,area with substrate ENLVFQS,area with substrate ENLEFQS,area with substrate ENLFFQS,area with substrate ENLGFQS,area with substrate ENLNFQS
D128T,0.0795,0.0391,0.0783,0.109,0.0672,0.122,,,,
I139T,0.0802,0.0612,,0.0799,,,0.0396,0.136,0.0571,0.0674
P228S,0.0821,0.0573,0.0531,0.079,0.0693,0.112,0.0603,,,
P228Y,0.0795,0.0374,,,0.051,,,0.0853,,
H29G,0.0671,,,,,,0.0548,,,
V78E,0.0537,0.064,0.0494,0.0591,0.0595,,0.0484,0.0662,,0.0766
E189L,0.0673,0.05,0.0705,0.0731,0.0511,0.0722,0.0549,0.0845,,0.0549
E195L,0.0881,0.0505,,0.043,,,0.0614,0.0783,,
E195P,0.0899,,,,,,,,,
L22M,0.0893,0.0674,,0.0895,0.0734,,0.0655,0.0771,0.0804,0.0681
L156Y,0.0593,,,0.0658,,,,0.0627,0.0403,0.0653
A170W,0.0697,0.0606,0.07,0.0645,,0.0369,,0.0551,,0.0778
T233P,0.0807,,0.0451,,,,,,,
T119S,0.0585,0.075,,0.0669,0.0654,,0.0792,0.0616,,0.06
S201N,0.0607,0.061,0.0615,0.0631,0.0623,0.0783,,0.0745,,0.0633
G166K,0.0562,0.0648,0.0746,0.0536,0.0364,,,,,
W212A,,0.0768,,,0.0448,,,0.0947,,
R50W,0.103,0.0695,,,0.085,,0.0673,0.114,,0.0293
R50Y,0.0962,0.0432,0.0776,0.0982,,0.101,0.0614,0.136,,0.0789

# Same assay, conditions: temperature: 34 °C; time window: 0-4 h after rhamnose induction
Variant,area with substrate ENLRFQS,area with substrate ENLQFQS,area with substrate ENLIFQS,area with substrate ENLMFQS,area with substrate ENLPFQS,area with substrate ENLLFQS,area with substrate ENLWFQS,area with substrate ENLTFQS
P228S,0.0734,,,,,,,
P228Y,0.077,0.075,,,,,,
H29G,,,0.0736,0.0717,0.0567,,,
V78E,0.0618,0.057,0.0566,,0.0554,0.0333,0.0493,
E189L,0.0647,0.0714,0.0766,,0.0584,0.0631,,
E195L,,,0.0817,,,,0.0485,
E195P,,,,,0.0625,,,
L22M,0.0716,0.0683,,,0.0436,0.0717,0.109,
L156Y,,,,,0.0429,,0.0468,
A170W,,,,,0.0618,0.0533,0.0509,
T233P,0.0616,,,,0.0618,,0.0731,
T119S,,,,0.0643,,,,
S201N,0.0806,0.0937,,0.0926,0.0574,0.0557,0.0708,0.0754
G166K,,0.0555,,,,,,0.0618
W212A,,,0.0523,,,,0.0666,
R50W,,,0.101,,0.0672,0.0731,0.0917,
R50Y,,0.0652,,0.0692,0.0541,,,
